Laboratory results: the supplement of paper PMC12645437, “Orthogonal IMiD-Degron Pairs Induce Selective Protein Degradation in Cells” (ACS Chemical Biology, 2025)
Some of the results follow.

Molecular target: no compound (DMSO)
Experiment: log2 fold change of degron read counts, EGFP-low vs EGFP+ sorted cells; higher = lower degron-EGFP level without compound (poor expression or instability)
Details: compound: DMSO control; 18 h
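Also: jurkat cells carrying a lentiviral library of mutant zinc finger degrons fused to EGFP plus mCherry, mCherry+ cells FACS sorted, degron abundance counted by next-generation sequencing.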

Row | Sequence | log2 fold change of degron read counts
1 | FDCDICGAEFTQKGNLLRHIKL | -1.76
2 | FDCDICGAWFTQKGNLLRHIKL | 0.479
3 | FYCPVCGATFTQKGNLLRHIKL | -0.243
4 | FFCEQCGALFTQKGNLLRHIKL | -0.0261
5 | FYCPICGRCFTQKGNLLRHIKL | -3.25
6 | LYCPICGFHCTQKGNLLRHIKL | 0.751
7 | FNCNQCGRIFTQKGNLLRHIKL | 0.26
8 | FDCDICGATFTQKGNLLRHIKL | -1.38
9 | FSCDQCGADFTQKGNLLRHIKL | -2.43
10 | FDCNVCGAWFTQKGNLLRHIKL | 0.469
11 | LRCPICGFWCTQKGNLLRHIKL | 2.24
12 | LFCNQCGFTCTQKGNLLRHIKL | 0.993
13 | FTCEICGAVFTQKGNLLRHIKL | -1.83
14 | FYCPICGRIFTQKGNLLRHIKL | -0.586
15 | FHCDVCGACFTQKGNLLRHIKL | -1.55
16 | FDCEICGAWFTQKGNLLRHIKL | 0.354
17 | FLCPICGAEFTQKGNLLRHIKL | -1.12
18 | FWCPQCGASFTQKGNLLRHIKL | 0.173
19 | FSCEICGRGFTQKGNLLRHIKL | -1.42
20 | FNCNQCGAEFTQKGNLLRHIKL | -1.65
21 | LYCNQCGFSCTQKGNLLRHIKL | 0.412
22 | FVCNVCGATFTQKGNLLRHIKL | -0.456
23 | FECSVCGHPFTQKGNLLRHIKL | -1.06
24 | LACNQCGFSCTQKGNLLRHIKL | 0.168
25 | FDCDVCGAIFTQKGNLLRHIKL | 0.235

Row | Sequence | log2 fold change of degron read counts
26 | FSCEVCGAHFTQKGNLLRHIKL | -0.886
27 | LWCEICGFVCTQKGNLLRHIKL | 1.8
28 | FWCNVCGAFFTQKGNLLRHIKL | 1.44
29 | FTCPVCGATFTQKGNLLRHIKL | -0.571
30 | FCCSVCGHVFTQKGNLLRHIKL | 0.31
31 | FNCNQCGHLFTQKGNLLRHIKL | 0.742
32 | FHCDICGAFFTQKGNLLRHIKL | -0.903
33 | FNCSVCGHHFTQKGNLLRHIKL | 0.0739
34 | FGCNQCGHSFTQKGNLLRHIKL | 0.291
35 | FCCNICGAQFTQKGNLLRHIKL | -0.34
36 | FGCEICGRHFTQKGNLLRHIKL | -0.669
37 | FSCSVCGHFFTQKGNLLRHIKL | 0.833
38 | FECDVCGANFTQKGNLLRHIKL | -1.19
39 | FACPICGAMFTQKGNLLRHIKL | 0.167
40 | FICDICGAGFTQKGNLLRHIKL | -1.63
41 | FHCPICGHRFTQKGNLLRHIKL | -0.313
42 | FECNQCGHWFTQKGNLLRHIKL | -0.0447
43 | FACPVCGAFFTQKGNLLRHIKL | 0.783
44 | LDCNQCGFCCTQKGNLLRHIKL | -0.765
45 | FRCEVCGAFFTQKGNLLRHIKL | -0.188
46 | FTCPICGRQFTQKGNLLRHIKL | -0.636
47 | LQCEICGFPCTQKGNLLRHIKL | -0.022
48 | FQCPQCGATFTQKGNLLRHIKL | -1.27
49 | LSCPICGFNCTQKGNLLRHIKL | 0.947
50 | FLCNQCGADFTQKGNLLRHIKL | -0.956
